Data: publication PMC12136788
This is one part of the list.

T1: UNK ZnF1-6 (called full-length) (human, UniProt Q9C0B0 30-357)
T1 sequence: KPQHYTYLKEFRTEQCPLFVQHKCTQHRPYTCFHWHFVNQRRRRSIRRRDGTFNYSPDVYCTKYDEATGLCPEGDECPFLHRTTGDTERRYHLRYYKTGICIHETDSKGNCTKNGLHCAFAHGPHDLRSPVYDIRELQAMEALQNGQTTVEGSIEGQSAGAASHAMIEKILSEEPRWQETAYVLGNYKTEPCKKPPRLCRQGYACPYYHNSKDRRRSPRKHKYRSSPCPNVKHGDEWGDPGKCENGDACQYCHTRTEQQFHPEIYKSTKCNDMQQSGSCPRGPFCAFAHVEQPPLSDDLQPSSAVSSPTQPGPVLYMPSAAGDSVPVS

B1: chr4:67617988:67618115:-|3pUTR|ENSG00000033178|unk|FALSE|unique (ssRNA)
RNA: GGGAGUUCUACAGUCCGACGAUCAAAUGUAGAAUGUUAAAAAUUAUUGCUAGGGUAGUCUUUUUUUUUUCCAGAAACCUAAUUAGGGUAUUAAAUUUUGUGUUUUUUUUGUUUUUUUUUUUUAAACAGAAGCAUGUUAUUUCACAACAGAGGAUUGAGCAUCA
B2: ENSG00000133640:stop:overlap|stop_codon|ENSG00000133640|stop_codon|NA|stop_codon (ssRNA)
RNA: GGGAGUUCUACAGUCCGACGAUCAGGCACACAGACACUCAGCAGGAUCUUCAAGUAAGUUGUGGUUUCCUUCAAAAUUAAUUUAGAAAUCACAAACGAAUUGAUGGAACCUAAUGCCAACAAGCAUUCUUUUUCAGAUAGGGGCAACAGAGGAUUGAGCAUCA
B3: ENSG00000083457:stop:overlap|stop_codon|ENSG00000083457|stop_codon|NA|stop_codon (ssRNA)
RNA: GGGAGUUCUACAGUCCGACGAUCACUUGGAGAGCAUCAGGAAGGCCCAGCUGAAAUCAGAGAAUCUGCUCGAAGAAGAGAAUUAGGACCUGCUAUCCACUGGGAGAGGCUAUCAGCCAGUCCUGGGACUUGGAGACCCAGCAUCAACAGAGGAUUGAGCAUCA
B4: chr5:154419581:154419682:+|3pUTR|ENSG00000164574|msi1|total|mutant (ssRNA)
RNA: GGGAGUUCUACAGUCCGACGAUCAAAGGGAUGGGUGUGUCCUCUGAGCACUCUGGCAUUUGUCAUUGCUGAGCCCAUAUCAGCCGGUCCUGGGACUUGACAAAGUAUGUGGGAGGGGAAGGAAGGACAGAACUUGACUGGCUCCAACAGAGGAUUGAGCAUCA
B5: chr7:41961162:41961264:-|3pUTR|ENSG00000106571|unk|FALSE|bound_elsewhere (ssRNA)
RNA: GGGAGUUCUACAGUCCGACGAUCCCCUUGUGUAUCCUGCAGACAUGUAAAAUAAAAUACAAGUUCAUUUUUUUCACCUUUUUUAGAUUUUUUUAAAAAAUAAAAUGUGUAAUCCUUUUUUUAAAAGAAACACAUGUAAAUACACAACAGAGGAUUGAGCAUCA
B6: chr1:42278343:42278454:-|CDS|ENSG00000198815|unk|FALSE|bound_elsewhere (ssRNA)
RNA: GGGAGUUCUACAGUCCGACGAUCAAAAAGAAAAUGACUUUAAGUGAAAUUUAUCAGUGGAUUUGUGAUAACUUCCCAUAUUAUAGAGAGGCUGGCAGUGGUUGGAAGGUAAGGAUUUUAUUUAAAUUAUUACUUUUAUGAAGUCAACAGAGGAUUGAGCAUCA
B7: ENSG00000070961:be:win_2201|CDS|ENSG00000070961|bound_else_gene|NA|bound_elsewhere_windowed (ssRNA)
RNA: GGGAGUUCUACAGUCCGACGAUCUAGAAGGUAAAGAUUUUAACAGAAGAAUACGAAAUGAAAAAGGAGAGAUUGAGCAAGAGAGGAUAGACAAGAUUUGGCCAAAACUUCGAGUACUUGCAAGAUCAUCUCCUACUGAUAAGCCAACAGAGGAUUGAGCAUCA
B8: chr11:46542767:46542868:-|CDS|ENSG00000110497|msi1|FALSE|unique (ssRNA)
RNA: GGGAGUUCUACAGUCCGACGAUCAACACGCUCCGCAACCUCAGUCUGGGUCCUACCCGCCGCUCUUUGGGAGGGCCUCUGUCUAGCCACCCUUCUAGGUAUCACCGAGAAAUAGCUCCUGGGUUGACAGGAUCUGAGUGGACCCAACAGAGGAUUGAGCAUCA
B9: chr1:180885099:180885158:+|3pUTR|ENSG00000143324|msi1_unk|FALSE|overlapping (ssRNA)
RNA: GGGAGUUCUACAGUCCGACGAUCAGCUGAAGCUAUGCCUUAUUAUGCAUCCACAUGUAUGGUCCCUGUAGCGUGACCUUUACUAGCUCUGAAUCAGAAGACAGAGCUAUUUCAGAGGCUCUGUGUGCCCUCACUAGAUAGUUUCAACAGAGGAUUGAGCAUCA
B10: chr8:37861146:37861251:-|3pUTR|ENSG00000156675|unk|FALSE|unique (ssRNA)
RNA: GGGAGUUCUACAGUCCGACGAUCCUGUGCAGAGCAAGAAGAUGAUACUUAUUUUUGAAUUUGUAUUUUUAAAACUAGAUUUAUAGACUUUUUUUUUUUUUAACUAGGGCACUUGCUUCCUUCUUAGCUAAAAGCACCAGCUGACAACAGAGGAUUGAGCAUCA
B11: chr2:89268000:89268296:-|CDS|ENSG00000242076|control|control|control (ssRNA)
RNA: GGGAGUUCUACAGUCCGACGAUCUCCCUGUCUGCAUCUGUAGGAGACAGAGUCACCAUCACUUGCCAGGCGAGUCAGGACAUUAGCAACUAUUUAAAUUGGUAUCAGCAGAAACCAGGGAAAGCCCCUAAGCUCCUGAUCUACCAACAGAGGAUUGAGCAUCA
B12: chr7:111727939:111728040:-|3pUTR|ENSG00000128512|unk|FALSE|unique (ssRNA)
RNA: GGGAGUUCUACAGUCCGACGAUCAAGUGGUAAAUAGUGAUAAAGACUCCUUUUGUACCUUUUUAUGUUCACUUUUUUUUAUAUAGUUUAAUCUUAAAACCAAUACGAUAUUGUCAAACGAUACAAUGUGUGACAAUGUUGUAUCAACAGAGGAUUGAGCAUCA
B13: chr15:52547342:52547511:-|3pUTR|ENSG00000128989|msi1|total|mutant (ssRNA)
RNA: GGGAGUUCUACAGUCCGACGAUCAACAUAUUUAAUAUUAUGCCCUUGGAUCUGUUACUGCAUCACCCGCACUUGUGAUGCAACCGAACACUUCGCCUGUACUGAAAGGGCCAAGAGUAAAUGCCUUGUUUUGUUUUUUUGUUUCAACAGAGGAUUGAGCAUCA
B14: chr7:98206920:98207021:+|3pUTR|ENSG00000164715|unk|total|mutant (ssRNA)
RNA: GGGAGUUCUACAGUCCGACGAUCGUUCUGCAUUAAGCCCCAGGUUCUCUUCUGGCUUUGAAAGGGCCCGAGUGCUCCCAGUGCCGCUUCGUCACAUCGUCACGAGCCCCUGUGGUCAUGGGCGACCUCACACCUCCCUCCCUGCAACAGAGGAUUGAGCAUCA
B15: ENSG00000136451:be:win_1751|3pUTR|ENSG00000136451|bound_else_gene|NA|bound_elsewhere_windowed (ssRNA)
RNA: GGGAGUUCUACAGUCCGACGAUCUCACUGGACCACUUUAGUUUAAUCAGAAAUUCCUUUUAGCUGACAACAUUGCUUAAACAGGAUAGUAGUUGGCAAGAUGAAAUGCCAGAAUUAAAACCAAUCAUAAGUAGAACCCACUUCCAACAGAGGAUUGAGCAUCA
B16: chr1:211748167:211748268:-|3pUTR|ENSG00000123684|msi1|FALSE|unique (ssRNA)
RNA: GGGAGUUCUACAGUCCGACGAUCGUACUGCAUCAGUGAGAUGAGUAGGGUUUUUGUUUGGGAUUGUAAGACUAUUAAGAUCCUAGUAAGUCAGUGGUAGUUUACUGUGAUGUGAGCAUUGUAGAUUCCCCCGUUGUCACUAAUCAACAGAGGAUUGAGCAUCA
B17: chr16:23068607:23068708:-|CDS|ENSG00000103404|msi1|total|mutant (ssRNA)
RNA: GGGAGUUCUACAGUCCGACGAUCCCUGCCACAAGGAGCCCUUUCCCACCUGGGAAGAGCAGGACUUCAGACCACAGCUUGAGCCGAGAGGGCUCCAGACAAAGCUUGGGUUCUGACAGAGCCAGCGCCACCUCCACCUCCAAACAACAGAGGAUUGAGCAUCA
B18: chr11:118750849:118750950:-|3pUTR|ENSG00000110367|msi1|FALSE|unique (ssRNA)
RNA: GGGAGUUCUACAGUCCGACGAUCAUUCUAGAAAGUACUUUGGCCUCGUGCUGUAGAGAGCAGAUUUCUAUGGUACCCUGUGUUAGUAAAGGGGCCCAGAAAUCUGGGAUGUACUGUUUGCUGCCACACUGUCUCAUCUAGUACCAACAGAGGAUUGAGCAUCA
B19: chr2:73226876:73226918:+|3pUTR|ENSG00000135632|msi1_unk|FALSE|overlapping (ssRNA)
RNA: GGGAGUUCUACAGUCCGACGAUCAUCUUUAGGGUCUCCACAGACUAACAUUGAAGUCUUCCAGAAACCUCGAGGAGCUGGGCUAGAUACUUCGAGAGUAGCCCUGUCUUGUCCCCUCCUACCCCCAGAUUAGCACCACCCCUCCAACAGAGGAUUGAGCAUCA
B20: chr1:15430058:15430159:+|3pUTR|ENSG00000142634|msi1|total|mutant (ssRNA)
RNA: GGGAGUUCUACAGUCCGACGAUCCCUGGAAGCUACGCGGACUUGCAGAGGUUUUAUUUUUUGGCCUCCGAAUCUGCAGAAAUCCGGAGGCACCGAGCCCAGCGCAGCAGCCUCGGACCCGGAUUGCGUUUGCCUCCGCGGAUACAACAGAGGAUUGAGCAUCA
B21: ENSG00000139428:stop:overlap|stop_codon|ENSG00000139428|stop_codon|NA|stop_codon (ssRNA)
RNA: GGGAGUUCUACAGUCCGACGAUCUAUUACUAUUCUUAACACUUACCUGUUCCUGGCUACCAUUUCUCCAUGGCGGGCCUGACUAGGUUUGCUCUGGAAUUAGUCACAGAAAAGGGCCAUACAUUUGCCGAAGAGCUUCAGAAACAACAGAGGAUUGAGCAUCA
B22: chr11:59829272:59829545:-|three_prime_utr|ENSG00000134812|control|control|control (ssRNA)
RNA: GGGAGUUCUACAGUCCGACGAUCAAAAAGCGAAUGCCUGUGAUGCUACCAUAUUCCUGGUAAAAACAUGGAGAACCACUAUGUAGAAUAAAAAUGCAAAGUUCACUGGAGUCUCAACAUCUAUGACUCAUGAAAAUAAAAUUUCAACAGAGGAUUGAGCAUCA

Each binder was assayed against T1, UNK ZnF1-6 (called full-length) (assay: nsRBNS (natural sequence RNA bind-n-seq); RBNS binding buffer (assumed for nsRBNS): 25 mM Tris pH 7.5, 150 mM KCl, 3 mM MgCl2, 0.01% Triton X-100, 500 ug/ml BSA, 20 U/ml SUPERase-In, 4 C; UNK is unkempt and MSI1 is Musashi-1; names of the RNAs are library labels; protein concentration not given here; high values mean tight binding).

Binder | binding signal [enrichment R]
B1 | 28.1
B2 | 0.515
B3 | 1.06
B4 | 0.858
B5 | 2.99
B6 | 3.38
B7 | 0.581
B8 | 0.989
B9 | 2.64
B10 | 53.1
B11 | 2.55
B12 | 21.5
B13 | 0.51
B14 | 1.32
B15 | 3.27
B16 | 0.481
B17 | 0.71
B18 | 0.975
B19 | 1.22
B20 | 0.644
B21 | 2.64
B22 | 0.443
